This experiment deals with calmodulin (with Ca^2+) (UniProt P0DP23). Nature of the experiment: co-sedimentation.

B1: CaMKIIβ K43R, kinase-null mutant, purified (enzyme)
chain: not shown
Consider B1, for which the binding result is on record as “binds”.

For the origin of these results see PMC4548268 (Neuron, 2015).
